Paper PMC3738564
No constants are given. Whether binding was seen depends on the method and setting. In cells and extracts the contact can be indirect. Some binding calls cover weakened binding; strength is not graded here.

Chains of the proteins cited; added tags and fusions are not shown.
UniProt P11531: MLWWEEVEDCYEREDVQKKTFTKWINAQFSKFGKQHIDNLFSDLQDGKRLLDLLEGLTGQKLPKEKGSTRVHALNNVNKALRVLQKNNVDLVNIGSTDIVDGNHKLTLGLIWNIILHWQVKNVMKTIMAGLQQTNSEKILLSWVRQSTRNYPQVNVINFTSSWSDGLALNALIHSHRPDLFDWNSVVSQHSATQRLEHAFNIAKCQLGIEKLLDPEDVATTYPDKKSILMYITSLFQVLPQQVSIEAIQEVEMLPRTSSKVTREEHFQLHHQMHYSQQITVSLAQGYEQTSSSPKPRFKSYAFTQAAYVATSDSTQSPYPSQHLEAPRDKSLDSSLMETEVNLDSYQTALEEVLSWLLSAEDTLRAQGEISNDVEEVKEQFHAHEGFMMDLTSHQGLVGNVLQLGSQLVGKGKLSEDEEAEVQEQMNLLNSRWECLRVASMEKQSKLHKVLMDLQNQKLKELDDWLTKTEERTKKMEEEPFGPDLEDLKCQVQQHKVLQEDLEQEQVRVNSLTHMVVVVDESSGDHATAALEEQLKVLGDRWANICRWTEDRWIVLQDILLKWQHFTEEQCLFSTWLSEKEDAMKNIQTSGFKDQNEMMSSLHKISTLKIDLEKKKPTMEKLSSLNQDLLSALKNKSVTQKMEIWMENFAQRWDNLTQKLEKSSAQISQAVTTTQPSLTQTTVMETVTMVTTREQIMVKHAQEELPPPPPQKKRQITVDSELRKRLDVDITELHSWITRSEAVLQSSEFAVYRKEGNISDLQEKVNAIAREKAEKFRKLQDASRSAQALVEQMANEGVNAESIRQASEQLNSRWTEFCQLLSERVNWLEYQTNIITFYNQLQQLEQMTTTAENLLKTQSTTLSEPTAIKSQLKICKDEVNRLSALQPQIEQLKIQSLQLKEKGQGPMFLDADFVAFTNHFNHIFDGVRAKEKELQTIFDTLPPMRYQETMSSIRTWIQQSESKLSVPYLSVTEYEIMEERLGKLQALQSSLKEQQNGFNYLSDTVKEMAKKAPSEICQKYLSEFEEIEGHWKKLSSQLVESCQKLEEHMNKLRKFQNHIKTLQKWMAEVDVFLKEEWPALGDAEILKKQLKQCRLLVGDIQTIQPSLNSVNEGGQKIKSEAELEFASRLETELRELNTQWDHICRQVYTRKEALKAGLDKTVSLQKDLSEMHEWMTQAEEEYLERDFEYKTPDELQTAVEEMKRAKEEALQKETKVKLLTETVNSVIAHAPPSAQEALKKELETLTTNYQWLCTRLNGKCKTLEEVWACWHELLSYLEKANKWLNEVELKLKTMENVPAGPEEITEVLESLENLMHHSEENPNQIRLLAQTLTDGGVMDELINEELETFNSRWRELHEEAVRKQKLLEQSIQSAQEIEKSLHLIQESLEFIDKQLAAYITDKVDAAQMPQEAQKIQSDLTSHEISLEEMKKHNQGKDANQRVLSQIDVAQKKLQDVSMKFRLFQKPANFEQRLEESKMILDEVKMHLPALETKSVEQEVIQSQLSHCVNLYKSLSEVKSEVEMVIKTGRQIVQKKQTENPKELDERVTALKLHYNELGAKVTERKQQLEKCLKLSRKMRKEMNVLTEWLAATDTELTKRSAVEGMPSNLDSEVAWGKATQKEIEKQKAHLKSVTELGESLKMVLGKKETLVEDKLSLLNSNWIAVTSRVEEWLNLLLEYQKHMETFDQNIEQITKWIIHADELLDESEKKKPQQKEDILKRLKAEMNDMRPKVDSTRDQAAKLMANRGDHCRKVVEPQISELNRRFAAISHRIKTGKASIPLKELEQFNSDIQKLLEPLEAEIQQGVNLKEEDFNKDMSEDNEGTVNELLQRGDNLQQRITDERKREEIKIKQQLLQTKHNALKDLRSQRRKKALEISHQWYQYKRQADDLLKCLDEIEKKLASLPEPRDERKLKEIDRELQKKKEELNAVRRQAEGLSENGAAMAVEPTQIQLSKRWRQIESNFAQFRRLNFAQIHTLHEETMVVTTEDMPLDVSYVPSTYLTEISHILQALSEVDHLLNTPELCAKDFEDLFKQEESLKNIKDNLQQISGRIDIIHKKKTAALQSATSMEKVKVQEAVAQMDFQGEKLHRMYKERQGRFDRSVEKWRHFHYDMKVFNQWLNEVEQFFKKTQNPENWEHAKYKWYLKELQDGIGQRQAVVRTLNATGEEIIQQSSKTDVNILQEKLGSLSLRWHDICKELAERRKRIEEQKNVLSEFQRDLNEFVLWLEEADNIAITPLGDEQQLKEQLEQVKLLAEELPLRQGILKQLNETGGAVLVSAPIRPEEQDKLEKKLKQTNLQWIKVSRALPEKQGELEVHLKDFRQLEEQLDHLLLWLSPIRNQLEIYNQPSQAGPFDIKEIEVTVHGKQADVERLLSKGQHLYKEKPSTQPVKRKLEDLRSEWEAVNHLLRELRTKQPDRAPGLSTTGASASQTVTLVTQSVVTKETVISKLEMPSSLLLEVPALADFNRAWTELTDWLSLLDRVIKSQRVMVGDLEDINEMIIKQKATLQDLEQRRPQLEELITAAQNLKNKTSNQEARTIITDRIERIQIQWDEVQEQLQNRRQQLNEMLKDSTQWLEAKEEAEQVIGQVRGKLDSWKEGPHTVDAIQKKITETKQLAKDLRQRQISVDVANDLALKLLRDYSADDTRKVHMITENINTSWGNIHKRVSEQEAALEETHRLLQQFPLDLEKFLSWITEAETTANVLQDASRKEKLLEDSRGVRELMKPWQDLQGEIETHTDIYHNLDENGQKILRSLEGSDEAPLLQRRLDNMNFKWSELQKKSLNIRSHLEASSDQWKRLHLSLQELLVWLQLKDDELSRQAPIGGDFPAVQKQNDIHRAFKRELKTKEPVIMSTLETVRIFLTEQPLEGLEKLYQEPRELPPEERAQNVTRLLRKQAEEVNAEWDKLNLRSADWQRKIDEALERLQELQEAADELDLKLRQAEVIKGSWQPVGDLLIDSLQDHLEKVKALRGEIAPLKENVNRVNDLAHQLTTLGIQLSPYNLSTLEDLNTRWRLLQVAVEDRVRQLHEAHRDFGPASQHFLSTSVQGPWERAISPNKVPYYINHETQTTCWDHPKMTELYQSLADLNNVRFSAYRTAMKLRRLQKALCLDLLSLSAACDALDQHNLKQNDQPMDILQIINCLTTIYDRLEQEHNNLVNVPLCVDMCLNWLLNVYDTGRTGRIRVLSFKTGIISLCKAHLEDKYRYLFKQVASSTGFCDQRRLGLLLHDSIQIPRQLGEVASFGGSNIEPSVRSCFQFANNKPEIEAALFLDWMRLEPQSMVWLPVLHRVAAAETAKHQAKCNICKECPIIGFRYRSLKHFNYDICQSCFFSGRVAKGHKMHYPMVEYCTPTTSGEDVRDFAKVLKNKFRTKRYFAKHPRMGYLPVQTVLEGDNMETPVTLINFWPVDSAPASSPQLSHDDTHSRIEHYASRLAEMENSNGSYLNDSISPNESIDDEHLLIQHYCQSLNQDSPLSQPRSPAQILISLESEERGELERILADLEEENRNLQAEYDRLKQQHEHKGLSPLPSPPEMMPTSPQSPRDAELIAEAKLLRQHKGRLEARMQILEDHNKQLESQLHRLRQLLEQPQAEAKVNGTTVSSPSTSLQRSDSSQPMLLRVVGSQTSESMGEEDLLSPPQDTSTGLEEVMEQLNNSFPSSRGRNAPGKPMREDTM
UniProt Q8CC27: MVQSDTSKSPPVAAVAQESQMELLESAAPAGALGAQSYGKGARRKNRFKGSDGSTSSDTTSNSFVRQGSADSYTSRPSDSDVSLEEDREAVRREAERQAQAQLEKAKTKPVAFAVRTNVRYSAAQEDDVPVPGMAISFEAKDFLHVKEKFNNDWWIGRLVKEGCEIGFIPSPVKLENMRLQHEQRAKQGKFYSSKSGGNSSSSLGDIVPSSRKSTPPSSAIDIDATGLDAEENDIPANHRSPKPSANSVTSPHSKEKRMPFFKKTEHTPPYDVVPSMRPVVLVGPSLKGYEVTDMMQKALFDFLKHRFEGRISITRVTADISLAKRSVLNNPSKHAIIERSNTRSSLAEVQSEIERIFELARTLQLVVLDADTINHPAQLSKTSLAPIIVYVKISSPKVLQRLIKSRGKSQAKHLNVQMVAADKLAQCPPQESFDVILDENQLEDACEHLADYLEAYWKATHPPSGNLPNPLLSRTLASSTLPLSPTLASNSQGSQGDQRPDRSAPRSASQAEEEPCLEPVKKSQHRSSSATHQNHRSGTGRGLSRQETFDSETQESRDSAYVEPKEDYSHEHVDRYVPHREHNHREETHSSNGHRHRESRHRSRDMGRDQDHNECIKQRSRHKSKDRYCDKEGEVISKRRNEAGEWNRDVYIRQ

Columns and labels:
[1] = biological target: T1, β-dystroglycan (mouse (endogenous in skeletal muscle)), Q62165; assay: co-IP; β-dystroglycan precipitated with MANDAG2 on protein G beads from wild type mouse quadriceps lysate (1% digitonin, 0.05% NP-40; 1 mg protein); Western blot; also done on mdx and mdx/Utrn-/- lysates; settings: remark: other sources report otherwise
T1 chain: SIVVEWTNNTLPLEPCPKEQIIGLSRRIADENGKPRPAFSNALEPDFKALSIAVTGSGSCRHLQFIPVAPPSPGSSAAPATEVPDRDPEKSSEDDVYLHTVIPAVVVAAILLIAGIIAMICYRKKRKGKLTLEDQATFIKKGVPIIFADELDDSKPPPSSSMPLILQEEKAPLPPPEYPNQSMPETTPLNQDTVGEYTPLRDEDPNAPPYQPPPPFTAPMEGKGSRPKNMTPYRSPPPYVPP

[2] = biological target: T2, β-dystroglycan (mouse (endogenous in skeletal muscle)) (UniProt Q62165); assay: co-IP; β-dystroglycan precipitated with MANDAG2 from mdx/Utrn-/- (no dystrophin, no utrophin) mouse quadriceps lysate (1% digitonin, 0.05% NP-40); Western blot
T2 sequence: T1 chain

[3] = biological target: T2, β-dystroglycan (mouse (endogenous in skeletal muscle)); assay: co-IP; β-dystroglycan precipitated with MANDAG2 on protein G beads from wild type mouse quadriceps lysate (1% digitonin, 0.05% NP-40; 1 mg protein); Western blot; also done on mdx and mdx/Utrn-/- lysates
[4] = biological target: T2, β-dystroglycan (mouse (endogenous in skeletal muscle)); assay: co-IP; β-dystroglycan precipitated with MANDAG2 from mdx (dystrophin-deficient) mouse quadriceps lysate (1% digitonin, 0.05% NP-40); Western blot
[5] = biological target: T3, α-dystroglycan (mouse (endogenous in skeletal muscle)), Q62165; assay: pull-down; α-dystroglycan held by its carbohydrates on wheat germ agglutinin agarose beads; wild type mouse skeletal muscle solubilised in PBS pH 7.5 with 0.5% Triton X-100; 4 °C overnight; Western blot; settings: remark: other sources report otherwise
T3 chain: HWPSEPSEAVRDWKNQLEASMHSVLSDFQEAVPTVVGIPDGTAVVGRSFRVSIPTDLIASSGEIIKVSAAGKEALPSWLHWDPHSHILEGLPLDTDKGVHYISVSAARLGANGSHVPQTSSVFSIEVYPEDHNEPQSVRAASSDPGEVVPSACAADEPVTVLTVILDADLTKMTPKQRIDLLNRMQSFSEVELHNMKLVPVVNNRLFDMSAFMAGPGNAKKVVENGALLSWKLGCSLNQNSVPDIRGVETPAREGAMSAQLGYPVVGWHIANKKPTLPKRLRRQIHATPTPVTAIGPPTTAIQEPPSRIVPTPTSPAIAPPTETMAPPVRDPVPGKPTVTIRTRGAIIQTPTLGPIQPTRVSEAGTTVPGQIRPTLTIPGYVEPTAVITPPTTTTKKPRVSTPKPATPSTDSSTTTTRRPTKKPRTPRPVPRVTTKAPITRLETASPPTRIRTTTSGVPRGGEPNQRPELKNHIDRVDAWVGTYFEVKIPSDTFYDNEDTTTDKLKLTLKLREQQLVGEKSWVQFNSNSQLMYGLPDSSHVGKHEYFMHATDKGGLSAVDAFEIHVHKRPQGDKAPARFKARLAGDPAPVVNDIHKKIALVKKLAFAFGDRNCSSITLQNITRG

[6] = biological target: full length (427 kDa) dystrophin (mouse (endogenous in skeletal muscle)) (UniProt P11531); assay: co-IP; dystrophin precipitated with MANDYS1 on protein G beads from wild type mouse quadriceps lysate (1% digitonin, 0.05% NP-40); Western blot
[7] = biological target: β2-regulatory subunit of voltage gated calcium channels (Cavβ2) (mouse (endogenous in skeletal muscle)) (UniProt Q8CC27); assay: co-IP; reverse immunoprecipitation with an antibody to Cavβ2 from wild type quadriceps lysate (1% digitonin, 0.05% NP-40); control antibody MW8; Western blot
[8] = biological target: T4, Polymerase I and transcript release factor (Cavin-1) (mouse) (UniProt O54724); assay: co-IP; reverse immunoprecipitation with an antibody to Cavin-1 from wild type quadriceps lysate (1% digitonin, 0.05% NP-40); control Rabbit-anti-Goat IgG; Western blot
T4 sequence: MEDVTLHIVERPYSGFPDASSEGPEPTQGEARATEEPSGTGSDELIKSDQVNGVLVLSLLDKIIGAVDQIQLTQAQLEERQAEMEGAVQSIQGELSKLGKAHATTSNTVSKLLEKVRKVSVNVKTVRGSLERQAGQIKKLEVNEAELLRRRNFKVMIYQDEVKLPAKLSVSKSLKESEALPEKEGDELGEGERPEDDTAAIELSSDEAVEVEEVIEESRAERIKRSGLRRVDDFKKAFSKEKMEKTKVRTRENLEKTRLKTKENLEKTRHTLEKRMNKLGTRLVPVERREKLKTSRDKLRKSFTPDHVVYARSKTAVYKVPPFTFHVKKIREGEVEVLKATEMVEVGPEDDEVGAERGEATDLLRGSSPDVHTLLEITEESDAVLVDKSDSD

[9] = biological target: full length (427 kDa) dystrophin (mouse (endogenous in skeletal muscle)) (UniProt P11531); assay: co-IP; dystrophin precipitated with a second monoclonal antibody (ab14452 coupled to agarose beads; called DYS1 in the legend) from wild type mouse skeletal muscle in PBS pH 7.5 with 0.5% Triton X-100; 4 °C overnight; Western blot

B1: β-sarcoglycan, P82349 1-320 (protein)
chain: MAAAAAAAAATEQQGSNGPVKKSMREKAVERRNVNKEHNSNFKAGYIPIDEDRLHKTGLRGRKGNLAICVIVLLFILAVINLLITLVIWAVIRIGPNGCDSMEFHESGLLRFKQVSDMGVIHPLYKSTVGGRRNENLVITGNNQPIVFQQGTTKLSVEKNKTSITSDIGMQFFDPRTHNILFSTDYETHEFHLPSGVKSLNVQKASTERITSNATSDLNIKVDGRAIVRGNEGVFIMGKTIEFHMGGDVELKAENSIILNGTVMVSPTRLPSSSSGDQSGSGDWVRYKLCMCADGTLFKVQVTGHNMGCQVSDNPCGNTH
binding [1]: binds

B2: α1-syntrophin (protein, UniProt Q61234 1-503)
chain: MASGRRAPRTGLLELRCGAGSGAGGERWQRVLLSLAEDALTVSPADGEPGPEPEPAQLNGAAEPGAAPPQLPEALLLQRRRVTVRKADAGGLGISIKGGRENKMPILISKIFKGLAADQTEALFVGDAILSVNGEDLSSATHDEAVQALKKTGKEVVLEVKYMKEVSPYFKNSAGGTSVGWDSPPASPLQRQPSSPGPQPRNLSEAKHVSLKMAYVSRRCTPTDPEPRYLEICAADGQDAVFLRAKDEASARSWAGAIQAQIGTFIPWVKDELQALLTATGTAGSQDIKQIGWLTEQLPSGGTAPTLALLTEKELLFYCSLPQSREALSRPTRTAPLIATSSAHRLVHSGPSKGSVPYDAELSFALRTGTRHGVDTHLFSVESPQELAAWTRQLVDGCHRAAEGIQEVSTACTWNGRPCSLSVHIDKGFTLWAAEPGAARAMLLRQPFEKLQMSSDDGTSLLFLDFGGAEGEIQLDLHSCPKTMVFIIHSFLSAKVTRLGLLA
binding [2]: binds weakly | binding [3]: binds

B3: β1-syntrophin (protein, UniProt Q99L88 1-537)
chain: MAVAAAAVAAPAGGGGARAQRSGLLEVLVRDRWHKVLVNLSEDALVLSCEEGAAAYNGIGAATNGSFCRGSGTGHPVPGVAQAPDSPAGVRTAFTDLPEQVPESISNQKRGVKVLKQELGGLGISIKGGKENKMPILISKIFKGLAADQTQALYVGDAILSVNGADLRDATHDEAVQALKRAGKEVLLEVKYMREATPYVKKGSPVSEIGWETPPPESPRLGGGSAEPLSSQSFSFHRDRKSIPLKMCYVTRNMTLADPENRQLEIHSPDAKHTVILRSKDSATAQAWFSAIHSNAGDLLTRVVADIREQLGKTGIAGSREIRHLGWLAEKVPGESEKQWKPALVVLTEKDLLIYDSMPRRKEAWFSPVHSYPLLATRLVHSGPGKGSPQAGMDLSFATRTGTKQGIETHLFRAEISRDLSHWTRSIVQGCHNSAELTAEITTACTYRNQECRLTIHYDNGFSISTEPQDGAFPKTIIQSPYEKLKMSSDDGIRMLYLDFGGKEGEIQLDLHSCPKPIVFIIHSFLSAKITRLGLVA
binding [2]: binds weakly | binding [3]: binds

B4: β-sarcoglycan (protein, UniProt P82349 1-320)
chain: B1 chain
binding [4]: no binding (condition: in mdx muscle (no dystrophin)) | binding [2]: binds weakly

B5: β-dystroglycan, Q62165 652-893 (protein)
chain: T1 chain
modifications: here or on the partner: highly glycosylated; carbohydrate moieties bound by wheat germ agglutinin
binding [5]: binds

B6: β-dystroglycan (protein, UniProt Q62165 652-893)
chain: T1 chain
binding [6]: binds | binding [7]: binds | binding [8]: binds | binding [9]: binds

B7: caveolin 3 (protein, UniProt P51637 1-151)
chain: MMTEEHTDLEARIIKDIHCKEIDLVNRDPKNINEDIVKVDFEDVIAEPEGTYSFDGVWKVSFTTFTVSKYWCYRLLSTLLGVPLALLWGFLFACISFCHIWAVVPCIKSYLIEIQCISHIYSLCIRTFCNPLFAALGQVCSNIKVVLRREG
binding [7]: no binding | binding [8]: binds

B8: α-dystroglycan (protein, UniProt Q62165 28-651)
chain: T3 chain
modifications: highly glycosylated; carbohydrate moieties bound by wheat germ agglutinin
binding [6]: binds | binding [9]: binds

B9: α-dystroglycan, Q62165 28-651 (protein)
chain: T3 chain
modifications: here or on the partner: highly glycosylated; carbohydrate moieties bound by wheat germ agglutinin
binding [1]: binds
